{"source": "PubChem BioAssay AID1240", "about": "(Sanford-Burnham Center for Chemical Genomics, 2008)", "note": "Screen size: about 50,000 compounds; about 800 (1.6%) showed an effect of 50% or more. The list shows a part of the results."}
{"target": "Bcl-2-like protein 10 (Homo sapiens) (UniProt Q9HD36)", "sequence (Q9HD36 whole entry, looked up)": "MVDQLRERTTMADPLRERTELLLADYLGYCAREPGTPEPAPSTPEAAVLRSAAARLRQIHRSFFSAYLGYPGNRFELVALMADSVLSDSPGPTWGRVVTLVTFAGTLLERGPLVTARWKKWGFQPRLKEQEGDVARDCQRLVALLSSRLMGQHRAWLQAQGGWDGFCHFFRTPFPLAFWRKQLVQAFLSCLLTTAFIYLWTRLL", "assay": "TR3 peptide-Bcl-B binding displacers, biochemical primary FP assay, phenotype converters (AID 1240);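 also: 0% = Bcl-B with tracer peptide and DMSO and 100% = tracer peptide lacking Bcl-B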", "conditions": "GST-Bcl-B / FITC-TR3 peptide fluorescence polarization; stronger effect = higher value; compound at 3.75 mg/L", "units": {"displacement": "%"}}
{"smiles": "COc1ccc(CCNC(=O)C(=O)Nc2ccccc2C)cc1OC", "displacement": 12.3}
{"smiles": "O=C(COC(=O)c1ccccc1[N+](=O)[O-])c1ccc(F)cc1", "displacement": 6.8}
{"smiles": "O=C(Nc1ccc(Cl)cc1)C1CC(=O)N(c2ccccc2)C1", "note": "(stereo unspecified)", "displacement": 8}
{"smiles": "CC(C)(C)OC(=O)N1CC(O)CC1C(=O)OCC(=O)c1ccccc1", "note": "(stereo unspecified)", "displacement": -10.6}
{"smiles": "O=C1N=c2ccc(Cl)cc2=C1c1sc(=S)n(Cc2ccco2)c1O", "displacement": 41.9}
{"smiles": "O=C1NN(c2ccc(I)cc2)C(=O)/C1=C\\c1ccc(F)cc1", "displacement": -1.7}
{"smiles": "NC(=O)c1c(NC(=O)COc2ccc(Cl)cc2)sc2c1CCCC2", "displacement": 3.8}
{"smiles": "Cc1cccc(C)c1NC(=O)COc1ccccc1O", "displacement": 2.1}
{"smiles": "O=C(O)c1ccc2c(c1)C(=O)N(c1ccc(Cl)c([N+](=O)[O-])c1)C2=O", "displacement": 9.8}
{"smiles": "COCCNC(=O)c1ccc(OC)c(OC)c1", "displacement": 8.6}
{"smiles": "c1ccc(CN2CCN(Cc3c[nH]c4ccccc34)CC2)cc1", "displacement": -8.5}
{"smiles": "CC(=O)NNc1nc(-c2ccccc2)c2cc(Br)ccc2n1", "displacement": -11.7}
{"smiles": "COc1ccccc1NC(=O)c1c(NC(=O)c2cccc(C)c2)sc2c1CCCC2", "displacement": -13.9}
{"smiles": "C=C(C)c1cccc(C(C)(C)NC(=O)Nc2ccc(C(=O)N3CCOCC3)cc2)c1", "displacement": 2.1}
{"smiles": "CCOC(=O)c1ccc2nc(C)c(C/C=C(/C)Cl)c(Cl)c2c1", "displacement": 2.2}
{"smiles": "COc1ccc(COCC(O)CN2CC(C)OC(C)C2)cc1OC", "note": "(stereo unspecified)", "displacement": 4}
{"smiles": "Cc1ccc(C(C)C)c(OCCNC(=O)CCc2ccccc2)c1", "displacement": 9.9}
{"smiles": "Cc1ccc(C(=O)Nc2sc3c(c2C(=O)N2CCC(C)CC2)CCCC3)cc1", "displacement": -8.7}
{"smiles": "COc1cc(CN2CCN(C3CC4CCC3C4)CC2)cc(OC)c1OC", "note": "(stereo unspecified)", "displacement": -13.9}
{"smiles": "O=C(COc1ccc(Cl)cc1Cl)Nc1cccc(NC(=O)c2ccco2)c1", "displacement": -1}
{"smiles": "CC1(C)CCCC2=C1CC1C(=O)NC(=O)C1C2", "note": "(stereo unspecified)", "displacement": -12.7}
{"smiles": "O=C(c1ccc(C#Cc2ccccc2)cc1)N1CCN(C/C=C/c2ccccc2)CC1", "displacement": 3.8}
{"smiles": "COC(C)(C)CNS(=O)(=O)c1ccc(C)cc1", "displacement": 13.2}
{"smiles": "CCC(CO)N1CC2([N+](=O)[O-])C=CCC([N+](=O)[O-])(C1)C2", "note": "(stereo unspecified)", "displacement": -6.5}
{"smiles": "COc1ccc(/C=C2/C(=O)N(c3cccc(Br)c3)N=C2C)c(OC)c1", "displacement": 7.1}
{"smiles": "CCc1cccc(CC)c1NC(=O)c1cc(Cl)ccc1[N+](=O)[O-]", "displacement": -1.3}
{"smiles": "COc1ccc(NC(=O)/C(C#N)=C/c2cccc(O)c2)cc1", "displacement": -6.7}
{"smiles": "O=C(Nc1ccc(S(=O)(=O)N2CCCC2)cc1)c1ccc([N+](=O)[O-])cc1", "displacement": 8.8}
{"smiles": "Cc1ccc(C(=O)Nc2ccccc2CO)cc1", "displacement": -17.7}
{"smiles": "O=C(NC(=S)Nc1ccc2ccccc2c1)c1ccco1", "displacement": 15.5}
{"smiles": "CC(=O)N1C(=O)/C(=C2\\C=C(c3ccccc3)OC2=O)c2ccccc21", "displacement": 5.1}
{"smiles": "O=C(Nc1ccccc1)C(=Cc1ccccc1F)NC(=O)c1ccccc1", "displacement": 5.2}
{"smiles": "COc1ccc(C2=C/C(=C/c3ccc(Cl)cc3)C(=O)O2)cc1", "displacement": -4.1}
{"smiles": "C/C(=N\\N=C(/N)SC1CC(=O)N(c2ccc(C(=O)O)cc2)C1=O)c1ccc(C)cc1", "note": "(stereo unspecified)", "displacement": -6}
{"smiles": "Cc1cccc(NC(=O)CC2CCCCC2)c1", "displacement": 2}
{"smiles": "CCOc1cc(/C=C2/C(=O)NC(=O)N(c3ccc(OC)cc3)C2=O)ccc1OCCOc1ccc([N+](=O)[O-])cc1", "displacement": -0.9}
{"smiles": "Cc1ccc(/C=N/NC(=O)C(C)O)cc1", "note": "(stereo unspecified)", "displacement": 7.6}
{"smiles": "COc1ccc(C(=O)N/C(=C\\c2ccc(-c3cccc([N+](=O)[O-])c3)o2)C(=O)NCc2cccnc2)cc1", "displacement": 6.8}
{"smiles": "O=C(O)c1cc(-c2ccc(/C=N/Nc3ccc(Cl)cc3)o2)ccc1Cl", "displacement": 10.7}
{"smiles": "Cc1ccc(C#CC(CC(=O)c2ccccc2)CC(=O)c2ccccc2)cc1", "displacement": -6}
{"smiles": "O=Cc1cn(-c2ccccc2)nc1-c1cccc([N+](=O)[O-])c1", "displacement": 10.5}
{"smiles": "Cc1nnc(Nc2ccc3c(c2)nc(C)n3C)c2ccccc12", "displacement": 4}
{"smiles": "COc1ccc(N2C(=O)/C(=C/c3ccc(OC(=O)C45CC6CC(CC(C6)C4)C5)c(OC)c3)SC2=S)cc1", "displacement": -4.8}
{"smiles": "OC(COc1ccc(Cl)cc1)CSc1ccccn1", "note": "(stereo unspecified)", "displacement": -9.3}
{"smiles": "CCOC(=O)c1cnn2c(C)c(C(C)=O)cnc12", "displacement": -6.7}
{"smiles": "O=C(NC(=S)Nc1ncc(Br)cc1Br)c1cccs1", "displacement": 7.3}
{"smiles": "Cc1cc(C)c2c(N)c(C#N)sc2n1", "displacement": -4.8}
{"smiles": "CSc1ccc(/C=C(/NC(=O)c2ccccc2)C(=O)NCCCO)cc1", "displacement": 1.2}
{"smiles": "O=C1NN(c2ccc(Br)cc2)C(=O)/C1=C\\c1ccc(-c2cccc(C(=O)O)c2)o1", "displacement": 8.7}
{"smiles": "O=C(Nc1nc(-c2ccc(Cl)s2)cs1)C(c1ccccc1)c1ccccc1", "displacement": -18.9}
{"smiles": "CCOP(=O)(OCC)/C(=C(\\NC(=O)c1ccccc1)C(=O)Nc1ccc(Cl)cn1)c1ccccc1", "displacement": -3.1}
{"smiles": "COc1ccc2c(c1OC)C(=O)O[C@@H]2[C@H]1c2c(cc3c(c2OC)OCO3)CCN1C", "displacement": -1.4}
{"smiles": "CCOc1ccc(NC(=O)CC(C)=O)cc1", "displacement": -9.2}
{"smiles": "O=C(N/N=C/c1ccc(O)cc1)c1cc2ccccc2cc1O", "displacement": 10.4}
{"smiles": "CCN(CC)CCOCCOCCN(CC)CC", "displacement": 0.5}
{"smiles": "CCOc1ccccc1OCCCCN1CCCC1", "displacement": -6.4}
{"smiles": "Cc1cccc(OCC(=O)N/N=C/c2cc([N+](=O)[O-])cc(Br)c2O)c1", "displacement": 20.5}
{"smiles": "COc1ccc(C(=O)N2CCN(Cc3ccccc3C)CC2)cc1OC", "displacement": -1}
{"smiles": "C=C1CC(C)OC(c2ccccc2O)C1", "note": "(stereo unspecified)", "displacement": -4.4}
{"smiles": "C=CCNC(=O)/C(=C\\c1ccccc1)NC(=O)c1ccc(Cl)cc1Cl", "displacement": -2}
{"smiles": "O=C(O)c1ccc(N/C(=N\\S(=O)(=O)c2ccccc2)c2ccccc2)cc1", "displacement": 10}
{"smiles": "COc1ccc(NC(=O)c2c(NC(=O)C(C)(C)C)sc3c2CCC(C)C3)cc1", "note": "(stereo unspecified)", "displacement": 3.3}
{"smiles": "Cc1cc(C(=O)N=Nc2c(O)n(C)c3ccc(Br)cc23)n[nH]1", "displacement": -13.8}
{"smiles": "O=C(/C=C/c1ccc(OC(=O)c2cccnc2)cc1)c1ccccc1", "displacement": -5.7}
{"smiles": "CCOC(=O)C(C(=O)Nc1ncccn1)C1CCCCC1", "note": "(stereo unspecified)", "displacement": -17.7}
{"smiles": "CCCOc1c(Cl)cc(/C=C2/SC(=S)NC2=O)cc1OC", "displacement": -1.9}
{"smiles": "CCCN1CCC(=NNC(=O)Cc2ccc(OC)cc2)CC1", "displacement": 3.7}
{"smiles": "COc1cc(/C=N/NC(=O)CCc2cc(C(C)(C)C)c(O)c(C(C)(C)C)c2)cc(Br)c1O", "displacement": 12.6}
{"smiles": "COc1cccc(OC)c1C(=O)ON1C(=O)c2ccccc2C1=O", "displacement": 1.3}
{"smiles": "O=C(CCC1CCCC1)Nc1ccc(F)c(F)c1", "displacement": -7.2}
{"smiles": "CCOC(=O)C1=C(c2ccccc2)N=c2s/c(=C\\c3cccnc3)c(=O)n2C1c1ccc2c(c1)OCO2", "note": "(stereo unspecified)", "displacement": -7.3}
{"smiles": "CCc1ccc(N2CC(C(=O)Nc3cc(C)cc(C)c3)CC2=O)cc1", "note": "(stereo unspecified)", "displacement": -1.8}
{"smiles": "CCN(CC)Cc1cc(NC2=NS(=O)(=O)c3ccccc32)ccc1O", "displacement": -1.2}
{"smiles": "O=[N+]([O-])c1c(Cl)cc(O)c2c1C1C=CCC1C(c1ccc(Br)cc1)N2", "note": "(stereo unspecified)", "displacement": 43.8}
{"smiles": "CCCOc1c(Br)cc(C2C3=C(CC(C)(C)CC3=O)OC3=C2C(=O)CC(C)(C)C3)cc1OC", "displacement": 6}
{"smiles": "COC(=O)c1cccc(NC(=O)COc2c(C)cccc2C)c1", "displacement": -1.9}
{"smiles": "O=C(NCCCNC(=O)Nc1ccccc1)Nc1ccccc1", "displacement": -5}
{"smiles": "Cc1cc(=O)[nH]c(SCCOc2ccc(C)c(C)c2)n1", "displacement": 19.7}
{"smiles": "CC(C)(C)C1CCc2c(sc(NC(=O)C3CC3c3ccccc3)c2C(N)=O)C1", "note": "(stereo unspecified)", "displacement": 5.6}
{"smiles": "CC(=O)CCc1oc2ccc(NC(C)=O)cc2c1-c1ccc(C)o1", "displacement": -4.2}
{"smiles": "Cc1ccc(S(=O)(=O)Nc2cccc3ccc[n+](C)c23)cc1", "displacement": 8.8}
{"smiles": "Cc1ccc(OCCOCCN2CCN(C)CC2)cc1C", "displacement": -17.2}
{"smiles": "COc1ccc(-n2c(SCC(=O)c3ccc(Br)cc3)nc3ccccc3c2=O)cc1", "displacement": -5}
{"smiles": "CCN(CC)c1ccc(NC(=O)/C=C/c2ccc(OC)c(Br)c2)cc1", "displacement": 12.6}
{"smiles": "C=CCN1C(=O)/C(=C\\c2cn(C)c3ccccc23)SC1=S", "displacement": -0.6}
{"smiles": "N#C/C(=C\\c1ccc(-c2cccc([N+](=O)[O-])c2)o1)C(=O)N1CCOCC1", "displacement": -3.5}
{"smiles": "CCOc1ccccc1/C=N/N1CCN(Cc2ccc(Cl)cc2)CC1", "displacement": -7.4}
{"smiles": "CC(C)CC(=O)N1CCN(Cc2cccnc2)CC1", "displacement": -8.1}
{"smiles": "Cc1ccc(CCC(=O)Nc2ncc(Cc3ccc(F)cc3)s2)o1", "displacement": 11.1}
{"smiles": "CCOc1cc(OCC)cc(C(=O)Nc2ccc(C)cc2)c1", "displacement": 12.8}
{"smiles": "O=C(Nc1ccccc1C(=O)O)c1ccc2c(c1)C(=O)N(c1ccc(Br)cc1)C2=O", "displacement": 17.2}
{"smiles": "O=C(Cc1ccccc1)NN=C1CCCC1", "displacement": -12.2}
{"smiles": "COc1ccc(NC(=O)c2cc(-c3ccccc3Cl)nc3ccccc23)c(OC)c1", "displacement": 8.7}
{"smiles": "NC(=O)c1c(N)sc2c1CCCCCCCCCC2", "displacement": -8.6}
{"smiles": "CCOC(=O)C1=C(O)CSC1=Nc1ccc(Cl)cc1", "displacement": -6.7}
{"smiles": "O=C(Nc1cccc(Cl)c1Cl)c1cnccn1", "displacement": -2.7}
{"smiles": "CC12CC3CC(C)(C1)CC(CNC(=O)Nc1ccccc1)(C3)C2", "displacement": 12.7}
{"smiles": "Cc1ccc2[nH]c(SCc3ccccc3F)nc2c1C", "displacement": -5.6}
{"smiles": "O=C(CSc1nnc(-c2ccncc2)n1-c1ccccc1)c1ccc(NS(=O)(=O)c2ccccc2)cc1", "displacement": 9.8}
{"smiles": "O=C1c2cccc3cccc(c23)C(=O)N1CC1CCN(S(=O)(=O)c2cccc3cccnc23)CC1", "displacement": 12.6}
{"smiles": "COc1ccc(/C(C)=N/OCC(=O)Nc2cccc(C(F)(F)F)c2)cc1OC", "displacement": -6.6}
{"smiles": "Cc1cccc(NC(=O)c2ccc(S(=O)(=O)N3CCCC3)cc2)c1", "displacement": -10.3}
{"smiles": "CCCc1cnc(-c2ccc(F)cc2)nc1", "displacement": -6.8}
{"smiles": "CN(C)c1ccc(-c2nc3cc(NC(=S)NC(=O)c4ccco4)ccc3o2)cc1", "displacement": 18.3}
{"smiles": "O=C(C1CC2CCC1C2)N1CCN(c2ccc([N+](=O)[O-])cc2)CC1", "note": "(stereo unspecified)", "displacement": 2.1}
{"smiles": "CC1CC(=O)Nc2cc([N+](=O)[O-])ccc2N1", "note": "(stereo unspecified)", "displacement": -3}
{"smiles": "O=c1ccc(=O)n(CN2CCOCC2)[nH]1", "displacement": 0.1}
{"smiles": "COc1ccc2c(c1OC)C(=O)OC2CC(=O)c1ccc(O)c(I)c1", "note": "(stereo unspecified)", "displacement": -1.5}
{"smiles": "O=C1CC(c2ccccc2)CC2=C1C(c1ccc(Cl)cc1Cl)Nc1ccccc1N2", "note": "(stereo unspecified)", "displacement": 8.6}
{"smiles": "COc1cccc(OCCCOc2c(C)cccc2C)c1", "displacement": -12.3}
{"smiles": "CCOC(=O)C1=C(C)NC2=C(C(=O)CCC2)C1c1ccc(OCc2ccc(Cl)cc2)c(OC)c1", "note": "(stereo unspecified)", "displacement": -13.8}
